Laboratory results as given in article PMC6919601, “Identification of Plasmodium dipeptidyl aminopeptidase allosteric inhibitors by high throughput screening” (PLoS ONE, 2019).
“And” between values parts separate entries of the source, which are not always exact repeats. Identical values can stand only once. Among all 110,000 compounds or so, about 230 (0.21%) showed an effect of 50% or more. Some of the results follow.

Molecular target: DPAP1 (Plasmodium falciparum, UniProt Q8IIJ9)
Experiment: primary screen, percent inhibition; read by cleavage of a fluorogenic dipeptide substrate; higher = more effect of the substance
Parameters: species or system P. falciparum D10 trophozoite lysates; single well
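Also: 30 min substrate incubation versus DMSO and 10 µM JCP410 controls.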

DPAP1, sequence (Q8IIJ9 whole entry, looked up): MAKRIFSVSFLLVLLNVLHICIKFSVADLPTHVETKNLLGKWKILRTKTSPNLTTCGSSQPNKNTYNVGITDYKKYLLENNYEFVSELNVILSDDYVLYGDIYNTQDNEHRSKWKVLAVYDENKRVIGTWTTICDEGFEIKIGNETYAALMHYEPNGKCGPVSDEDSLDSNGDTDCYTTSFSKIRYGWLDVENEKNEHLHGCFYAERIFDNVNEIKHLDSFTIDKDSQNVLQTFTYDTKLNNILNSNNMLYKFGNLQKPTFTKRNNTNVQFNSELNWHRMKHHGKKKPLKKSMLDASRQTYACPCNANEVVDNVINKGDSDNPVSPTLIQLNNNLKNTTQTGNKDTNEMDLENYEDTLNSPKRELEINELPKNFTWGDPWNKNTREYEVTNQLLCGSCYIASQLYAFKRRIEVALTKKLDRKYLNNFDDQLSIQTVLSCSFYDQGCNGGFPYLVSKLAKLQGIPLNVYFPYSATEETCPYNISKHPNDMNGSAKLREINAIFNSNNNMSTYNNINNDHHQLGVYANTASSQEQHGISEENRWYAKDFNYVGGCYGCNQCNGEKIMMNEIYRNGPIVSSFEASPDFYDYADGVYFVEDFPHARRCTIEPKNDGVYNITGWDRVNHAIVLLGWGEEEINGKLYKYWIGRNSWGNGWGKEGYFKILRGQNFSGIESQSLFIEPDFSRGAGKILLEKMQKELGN

| Compound | % Inhibition @ 10 uM |
| --- | --- |
| N#C/C(=C(/O)c1cccc2ccccc12)c1nc2ccccc2[nH]1 | 1.37% |
| O=C(Nc1cccnc1)Oc1ccccc1 | -5.35% |
| Cc1cc(C)n(-c2nc3cc(Cl)ccc3nc2Cl)n1 | -2.8% |
| COc1ccc(CNC(=O)CCNS(=O)(=O)c2cc(Br)cnc2N)cc1 | 0.522% |
| CCOc1ccc(-n2cc(-c3ccccc3)c3c(NCC(C)O)ncnc32)cc1 (centres unmarked) | 4.92% |
| CC(C)Cc1c(C#N)c(N)nc(SCC(=O)c2cc3cc(Br)ccc3oc2=O)c1C#N | 2.3% |
| CCN1CCC(NCc2ccccc2C(F)(F)F)CC1 | -4.14% |
| CC1=C(C(=O)Nc2cccnc2)C(c2cccc(OCc3ccccc3)c2)n2ncnc2N1 (centres unmarked) | 0.279% |
| COc1ccc(-c2csc(Nc3ccccc3)n2)cc1 | 5.39% |
| Cc1sc2c(=O)n3c(nc2c1C(=O)NC1CCCCC1)CCCCC3 | -1.26% |
| COc1ccc(N(C)C(=O)c2sc(Cl)nc2C)cc1 | 0.907% |
| COc1cc(NC(=O)c2cccc(Br)c2)nc(OC)n1 | -0.413% |
| Cc1ccc2nc(O)c3cc(C(=O)NCCCN4CCCC4=O)sc3c2c1 | -2.16% |
| CCOc1cc(/C=C2/NC(=O)NC2=O)c(Br)cc1O | 0.487% |
| COC(=O)CSc1nc(C)c(C)c(C)c1C#N | 4.15% |
| CCOc1ccccc1C(=O)Nc1cccc(F)c1 | 0.00477% |
| O=C1c2ccccc2C(=O)c2cc(S(=O)(=O)N3CCCC3)ccc21 | -5.61% |
| Fc1ccccc1CN1CCN(c2ccccc2F)CC1 | 2.47% |
| O=C(NCCSc1c[nH]c2ccccc12)c1cccc2ccccc12 | 1.23% |
| Cc1ccc(S(=O)(=O)N2CCC(C(N)=O)CC2)cc1C | -2.03% |
| COc1ccc(NC(=O)C(=O)NCCCn2ccnc2C)cn1 | 4.57% |
| CCC(C)(C)C1CCc2c(sc(NC(=O)c3cc(C)oc3C)c2C(N)=O)C1 (centres unmarked) | 5.15% |
| O=C(O)c1ccc(COc2ccc3c(c2)CCC3)o1 | 2.09% |
| O=C(c1cc2c(s1)-c1ccc(Cl)cc1SC2)N1CCCCC1 | 2.57% |
| Cc1cccc(NC(=S)NCc2ccco2)n1 | 4.63% |
| Cc1cc(/C=C2\SC(=O)NC2=O)c(C)n1-c1ccc(-c2ccccc2)cc1 | 1.39% |

| Compound | % Inhibition @ 10 uM |
| --- | --- |
| CCCCNc1nc(N)nc(-c2cc(Cl)ccc2O)n1 | 5.49% |
| CCNC(=O)C1CCN(S(=O)(=O)c2c(C)cc(C)cc2C)CC1 | -6.38% |
| CN1CCN(c2c3c(nc4ccccc24)C2(C)CCC3C2(C)C)CC1 (centres unmarked) | -3.15% |
| COCCNC(=O)C(Cc1ccccc1)N1Cc2ccccc2C1=O (centres unmarked) | -1.31% |
| COc1ccc(-c2nnc3oc(O)cc(C)c2-3)cc1 | -1.33% |
| Cc1nc(-c2ccccc2)sc1C(=O)NCc1ccccc1 | 3.95% |
| Cc1cccc(NC(=O)CN2C(=O)N/C(=C/c3ccc(-c4cccc(C(=O)O)c4C)o3)C2=O)c1 | 4.08% |
| Cc1nnc2c(NCc3ccccc3)nc3ccc(C(=O)c4ccccc4)cc3n12 | 0.454% |
| CC1CCN(S(=O)(=O)c2ccc3nc(-c4ccccn4)cc(C(=O)NCC4CCCO4)c3c2)CC1 (centres unmarked) | -2.72% |
| O=C(COc1ccc(S(=O)(=O)NC2CCCCC2)cc1)NCCC1=CCCCC1 | 3.74% |
| O=C(NC1(C(F)(F)F)NC(=O)N(C2CCCCC2)C1=O)c1ccc(Cl)cc1Cl (centres unmarked) | 1.03% |
| N#CC1=C(N)N(c2ccc(Cl)cc2)C2=C(C(=O)CCC2)C12C(=O)Nc1ccccc12 (centres unmarked) | 0.687% |
| Cc1nn(C)c(C(=O)NCc2ccc(Cl)cc2)c1Cl | 0.687% |
| CCCCC1(CC)Cc2ccccc2-c2nc(-c3ccccc3)nc(S)c21 (centres unmarked) | 0.986% |
| COc1ccccc1CCNCc1c(C(=O)O)c(C)n(Cc2ccccc2F)c1C | 4.79% |
| CCc1cccc(CC)c1NC(=O)CCN1C(=O)c2ccccc2C1=O | 1.83% |
| Cc1cc(NC(=O)c2ccc(-c3ccccc3F)o2)no1 | -2.05% |
| COc1cc2c(cc1OC)C(COc1ccc(F)cc1)N(C(=O)c1ccco1)CC2 (centres unmarked) | 3.04% |
| CCCCCCc1nnc(NC(=O)CCCC)s1 | 0.927% |
| Cc1c(CNC(C)c2ccccc2)c(C(=O)O)c(C)n1Cc1ccccc1 (centres unmarked) | 8.86% |
| Cc1ccc(S(=O)(=O)O)c(C)c1N1CCCC1=O | -5.5% |
| COc1ccc(-n2c(N)c(-c3nc4ccccc4s3)c3nc(C#N)c(C#N)nc32)cc1 | -0.0626% |
| CC1=C(C(=O)Nc2cccnc2)C(c2ccc(Br)cc2)n2nc(-c3ccccc3)nc2N1 (centres unmarked) | -2.32% |
| CC(CNC(=O)c1cccnc1)NC(=O)c1cccnc1 (centres unmarked) | -1.82% |
| O=C(COc1ccccc1Br)N1CCCCC1 | -4.7% |
| Cn1cccc1C1Nc2ccccc2N=C2CC(C)(C)CC(O)=C21 (centres unmarked) | -0.759% |

| Compound | % Inhibition @ 10 uM |
| --- | --- |
| Cc1ccc(C(=O)N/C(=C/c2ccccc2)C(=O)Nc2nccs2)cc1 | 4.65% |
| CC(C)(C)c1ccc(CN(Cc2ccco2)C(=O)c2ccccc2)cc1 | 2.29% |
| Nc1ccc(-c2nc3cc(Cl)ccc3o2)cc1 | -1.44% |
| COc1ccccc1NC(=O)Nc1ccccc1C | 1.7% |
| COc1ccc(Br)cc1C1CC(=O)N2CN(Cc3ccco3)CSC2=C1C#N (centres unmarked) | 60.5% |
| CC(=O)N(CCc1ccccc1)C1CC(=O)N(c2ccc(Br)cc2)C1=O (centres unmarked) | -0.28% |
| COc1ccc(OC)c(NC(=O)c2ccc(C(=O)Nc3cc(OC)ccc3OC)cc2)c1 | 4.11% |
| Cc1ccsc1CCNS(=O)(=O)c1ccc2nc(O)ccc2c1 | 1.64% |
| CNC(=O)/C(=C\c1ccc2c(c1)OCO2)NC(=O)c1ccccc1 | -2.68% |
| COc1cc2c(cc1OC)CC1(CCCCC1)N=C2 | 1.13% and -3.63% |
| O=C(COc1cccc(Cl)c1)Nc1nc(-c2ccc(S(=O)(=O)N3CCOCC3)cc2)cs1 | -5.5% |
| COCCCNC(=O)CS(=O)(=O)Cc1nc(-c2cccc(Cl)c2)oc1C | 0.44% |
| COc1ccc(C(=O)c2c[nH]nc2-c2cc(C)ccc2O)cc1 | -2.53% |
| COc1ccc(OC)c(NC(=O)COc2ccccc2C)c1 | -4.49% |
| CCOc1ccc(S(=O)(=O)Nc2cc(SCC(=O)O)c(O)c3ccccc23)cc1 | 2.69% |
| O=C(CSc1nnc(CNC(=O)c2ccco2)n1-c1cccc(Cl)c1)Nc1nccs1 | -11% |
| Cc1nnc(N2CCC(C(=O)N3CCOCC3)CC2)c2nn(-c3ccccc3)c(C)c12 | -0.696% |
| CC1CCN(C(=O)CN(c2ccc3c(c2)OCCO3)S(=O)(=O)c2ccccc2)CC1 | -4.49% |
| CC1CCN(CCCCOc2cccc(C(C)C)c2)CC1 | 3.87% |
| COC(=O)c1cc(S(=O)(=O)N2CCC(c3cc(OC)ccc3OC)C2)c[nH]1 (centres unmarked) | -1.01% |
| Cc1ccc(N/C=C(\C#N)C(=O)NC(=O)c2ccccc2)cc1 | -4.75% |
| CCN1CCC2(CC1)OC(=O)C(C)=C2C(=O)NCCc1cccs1 | 0.56% |
| Cn1nccc1C(=O)C#Cc1ccccc1 | 2.55% |
| O=C(c1ccc(F)cc1)N1CCN(Cc2ccccc2)CC1 | -0.582% |
| COc1cc(C(C)=O)ccc1OCC(O)CN1CCN(c2ccccc2)CC1 (centres unmarked) | 0.161% |
| COc1ccc(CCNC(=O)C(Cc2ccccc2)NS(=O)(=O)c2cccs2)cc1OC (centres unmarked) | -0.228% |

| Compound | % Inhibition @ 10 uM |
| --- | --- |
| CN(C)C(=O)c1ccc(N/C=C2/C(=O)NC(=O)N(c3ccccc3)C2=O)cc1 | -2.89% |
| COC(=O)C1=C(C)NC(=O)CC1c1cc(Br)ccc1F (centres unmarked) | 3.25% |
| CC1CN(Cc2ccc(F)c(F)c2)CC(C)O1 (centres unmarked) | -3.8% |
| N#CCNC(=O)[C@H](Cc1ccc(F)cc1)NC(=O)c1ccccc1 | -1.83% |
| COc1ccc(-c2cc3nc(C)c(CCC(=O)N4CCC5(CC4)OCCO5)c(C)n3n2)c(OC)c1 | 2.93% |
| O=C(O)CCCN1C(=O)C2C3CC(C2C1=O)C1C(c2cccnc2)c2sc(O)nc2SC31 (centres unmarked) | 4.8% |
| COc1ccccc1/C=c1\sc2nc(-c3ccccc3C)nn2c1=O | 2.24% |
| O=C(Nc1ccc2c(c1)OCCO2)c1sc2cc(F)ccc2c1Cl | -5.79% |
| CC(C)CCn1c(=O)c2ccccc2n2c(CCC(=O)NCc3ccco3)nnc12 | 8.05% |
| Cc1cc(Cl)ccc1OCC(O)CN1CCN(c2ccccc2F)CC1 (centres unmarked) | 3.43% |
| CCOc1ccccc1-n1nnc(C(=O)OC)c1C(=O)OC | -1.58% |
| CCCN(CC1CC1)C1CCN(C(=O)OCC)CC1 | -0.0908% |
| CCOc1cc(C2C(C(=O)c3ccc(C)cc3)=C(O)C(=O)N2c2nncs2)ccc1O (centres unmarked) | -0.178% |
| COc1ccccc1N1CCN(CC(O)COc2ccccc2F)CC1 (centres unmarked) | -0.478% |
| CCN1CCCC1CNC(=O)c1cnc(SC)nc1-c1ccccc1 (centres unmarked) | 1.77% |
| Cc1ccc(-n2ncc(C(=O)N3CCCCC3CCO)c2NC(=O)c2ccco2)cc1C (centres unmarked) | -5.13% |
| CCCCOC(=O)/C(C#N)=C/c1ccc(-c2ccccc2)o1 | 5.59% |
| CCOc1ccc(-c2cc(C(=O)NCC3CCCO3)c3cc(C)ccc3n2)cc1 (centres unmarked) | 2.08% |
| Cc1ccc2oc(/C=C/c3nc4cc(C)ccc4o3)nc2c1 | -0.546% |
| CCCCOc1ccc(Nc2nc(-c3ccccc3)cc(-c3ccccc3)n2)cc1 | 6.6% |
| Cc1ccc(C(=O)O)c(C(=O)Nc2sc3c(c2C#N)CCC(C)C3)c1 (centres unmarked) | 3.05% |
| O=C1C(Cl)=C(Nc2ccc(F)cc2)C(=O)N1c1ccccc1 | -1.37% |
| COc1cccc(NC(=O)CN(c2cccc(Cl)c2)S(C)(=O)=O)c1 | -1.95% |
